# This is one part of the list.
# Tests used:
# Test in all cases: glycan array binding signal (z-score within array); higher = stronger binding
# Conditions in all cases: glycan notation: IUPAC condensed, linker removed
# Gal6S(b1-4)Glc6S = target: Gal6S(b1-4)Glc6S
# How it was run: (§1)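 The binding signal is a Z-score computed within each array. Data were drawn from 3228 arrays in the Consortium for Functional Glycomics database, restricted to those with a known protein sequence. Scores were averaged over arrays of the same protein sequence at different concentrations or buffers, and over linkers, and negative values can be taken as non-binding.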
# Gal6S(b1-4)GlcNAc = target: Gal6S(b1-4)GlcNAc
# How it was run: as §1
# Gal6S(b1-4)GlcNAc6S = target: Gal6S(b1-4)GlcNAc6S
# How it was run: as §1
# GalNAc(a1-3)Gal = target: GalNAc(a1-3)Gal
# How it was run: as §1
# GalNAc(a1-3)GalNAc = target: GalNAc(a1-3)GalNAc
# How it was run: as §1
# [1] = target: GalNAc(a1-3)GalNAc(b1-3)Gal(a1-4)Gal(b1-4)Glc
# How it was run: as §1
# [2] = target: GalNAc(a1-3)GalNAc(b1-3)Gal(a1-4)Gal(b1-4)GlcNAc
# How it was run: as §1
# GalNAc(b1-3)Gal = target: GalNAc(b1-3)Gal
# How it was run: as §1
# [3] = target: GalNAc(b1-3)Gal(a1-4)Gal(b1-4)GlcNAc
# How it was run: as §1
# [4] = target: GalNAc(b1-3)Gal(a1-4)Gal(b1-4)GlcNAc(b1-3)Gal(b1-4)Glc
# How it was run: as §1
# [5] = target: GalNAc(b1-3)Gal(a1-6)Gal(b1-4)Glc
# How it was run: as §1
# GalNAc(b1-3)GalNAc = target: GalNAc(b1-3)GalNAc
# How it was run: as §1
# GalNAc(b1-3)GlcNAc = target: GalNAc(b1-3)GlcNAc
# How it was run: as §1
# GalNAc(b1-4)Gal(b1-4)Glc = target: GalNAc(b1-4)Gal(b1-4)Glc
# How it was run: as §1
# GalNAc(b1-4)GlcNAc = target: GalNAc(b1-4)GlcNAc
# How it was run: as §1
# [6] = target: GalNAc(b1-4)GlcNAc(b1-2)Man
# How it was run: as §1
# [7] = target: GalNAc(b1-4)GlcNAc(b1-2)Man(a1-3)[GalNAc(b1-4)GlcNAc(b1-2)Man(a1-6)]Man(b1-4)GlcNAc(b1-4)GlcNAc
# How it was run: as §1
# [8] = target: GalNAc(b1-4)GlcNAc(b1-3)GalNAc(b1-4)GlcNAc
# How it was run: as §1
# GalNAc(b1-4)GlcNAc6S = target: GalNAc(b1-4)GlcNAc6S
# How it was run: as §1
# GalNAc(b1-6)GalNAc = target: GalNAc(b1-6)GalNAc
# How it was run: as §1
# GalNAc3S(b1-4)GlcNAc = target: GalNAc3S(b1-4)GlcNAc
# How it was run: as §1
# GalNAc3S(b1-4)GlcNAc3S = target: GalNAc3S(b1-4)GlcNAc3S
# How it was run: as §1
# [9] = target: GalNAc3S(b1-4)[Fuc(a1-3)]GlcNAc
# How it was run: as §1
# GalNAc4S6S(b1-4)GlcNAc = target: GalNAc4S6S(b1-4)GlcNAc
# How it was run: as §1
# GalNAc6S(b1-4)GlcNAc = target: GalNAc6S(b1-4)GlcNAc
# How it was run: as §1
# Glc(a1-4)Glc = target: Glc(a1-4)Glc
# How it was run: as §1
# [10] = target: Glc(a1-4)Glc(a1-4)Glc(a1-4)Glc
# How it was run: as §1
# Glc(a1-6)Glc(a1-6)Glc = target: Glc(a1-6)Glc(a1-6)Glc
# How it was run: as §1
# [11] = target: Glc(a1-6)Glc(a1-6)Glc(a1-6)Glc
# How it was run: as §1
# Glc(b1-4)Glc = target: Glc(b1-4)Glc
# How it was run: as §1
# Glc(b1-6)Glc = target: Glc(b1-6)Glc
# How it was run: as §1
# GlcA(b1-3)Gal = target: GlcA(b1-3)Gal
# How it was run: as §1
# GlcA(b1-3)GlcNAc = target: GlcA(b1-3)GlcNAc
# How it was run: as §1
# GlcA(b1-6)Gal = target: GlcA(b1-6)Gal
# How it was run: as §1
# [12] = target: GlcA3S(b1-3)Gal(b1-4)GlcNAc(b1-2)Man
# How it was run: as §1
# [13] = target: GlcA3S(b1-3)Gal(b1-4)GlcNAc(b1-3)Gal(b1-4)Glc
# How it was run: as §1
# [14] = target: GlcNAc(a1-3)Gal(b1-4)GlcNAc
# How it was run: as §1
binder,measurement,setting,value
Cohesin-hMARCO (Homo sapiens) (protein) LDDLDAVRIKVDTVNAKPGDTVRIPVRFSGIPSKGIANCDFVYSYDPNVLEIIEIEPGDIIVDPNPDKSFDTAVYPDRKIIVFLFAEDSGTGAYAITKDGVFATIVAKVKEGAPNGLSVIKFVEVGGFANNDLVEQKTQFFDGGANVGDTTEPATPTTPVTTPTTTDDLDAASVRIVGSSNRGRAEVYYSGTWGTICDDEWQNSDAIVFCRMLGYSKGRALYKVGAGTGQIWLDNVQCRGTESTLWSCTKNSWGHHDCSHEEDAGVECSVHHHHHH,glycan array binding signal (z-score),Gal6S(b1-4)Glc6S,0.346
same,glycan array binding signal (z-score),Gal6S(b1-4)GlcNAc,-0.215
same,glycan array binding signal (z-score),Gal6S(b1-4)GlcNAc6S,0.105
same,glycan array binding signal (z-score),GalNAc(a1-3)Gal,1.03
same,glycan array binding signal (z-score),GalNAc(a1-3)GalNAc,0.678
same,glycan array binding signal (z-score),[1],-0.264
same,glycan array binding signal (z-score),[2],-0.272
same,glycan array binding signal (z-score),GalNAc(b1-3)Gal,3.14
same,glycan array binding signal (z-score),[3],0.792
same,glycan array binding signal (z-score),[4],0.383
same,glycan array binding signal (z-score),[5],1.8
same,glycan array binding signal (z-score),GalNAc(b1-3)GalNAc,0.247
same,glycan array binding signal (z-score),GalNAc(b1-3)GlcNAc,0.466
same,glycan array binding signal (z-score),GalNAc(b1-4)Gal(b1-4)Glc,-0.13
same,glycan array binding signal (z-score),GalNAc(b1-4)GlcNAc,0.286
same,glycan array binding signal (z-score),[6],1.08
same,glycan array binding signal (z-score),[7],-0.251
same,glycan array binding signal (z-score),[8],0.209
same,glycan array binding signal (z-score),GalNAc(b1-4)GlcNAc6S,-0.101
same,glycan array binding signal (z-score),GalNAc(b1-6)GalNAc,-0.405
same,glycan array binding signal (z-score),GalNAc3S(b1-4)GlcNAc,-0.538
same,glycan array binding signal (z-score),GalNAc3S(b1-4)GlcNAc3S,-0.315
same,glycan array binding signal (z-score),[9],-0.274
same,glycan array binding signal (z-score),GalNAc4S6S(b1-4)GlcNAc,-0.303
same,glycan array binding signal (z-score),GalNAc6S(b1-4)GlcNAc,1.1
same,glycan array binding signal (z-score),Glc(a1-4)Glc,-0.037
same,glycan array binding signal (z-score),[10],-0.469
same,glycan array binding signal (z-score),Glc(a1-6)Glc(a1-6)Glc,-0.237
same,glycan array binding signal (z-score),[11],-0.553
same,glycan array binding signal (z-score),Glc(b1-4)Glc,-0.114
same,glycan array binding signal (z-score),Glc(b1-6)Glc,0.787
same,glycan array binding signal (z-score),GlcA(b1-3)Gal,-0.351
same,glycan array binding signal (z-score),GlcA(b1-3)GlcNAc,-0.363
same,glycan array binding signal (z-score),GlcA(b1-6)Gal,-0.166
same,glycan array binding signal (z-score),[12],-0.338
same,glycan array binding signal (z-score),[13],0.032
same,glycan array binding signal (z-score),[14],-0.466

# — the supplement of paper PMC8728848
